# ± gives the standard deviation of the averaged measurements. Some of the results follow.
# Tested on: PfAP2-I AP2 domain 3 (GST-tagged)
# Assay: gcPBM binding intensity (ln(normalized median fluorescence intensity)); higher = stronger DNA binding
# Summary of the method: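 Binding of GST-tagged P. falciparum DNA-binding domains, expressed in E. coli and used at about 25 μg on average, was carried out for 1 h in 1× PBS containing 1% milk, 0.2 mg/ml BSA, 0.5% salmon testes DNA and 0.03% Triton X-100. The target was an Agilent 4 × 180k array of primer-extended double-stranded 36-bp intergenic genomic probes plus negative controls, read with Alexa488 anti-GST antibody at 488 nm. Binding intensity is the highest Masliner-normalised natural-log median intensity across replicate spots of either probe orientation.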
row,Sequence,gcPBM binding intensity (ln)
1,ACTTATGATTTATTTTGTACATATATACTATTCCTG [XGTACX_site5275],8.17 ± 0.71
2,ACAAATACTAACAACGCATGTAAGCCTACAATAAAT [TGCATGCA_site551],7.78 ± 0.57
3,GCTCCTTTTACCATCGCACACGATAAAAAAAAATAA [CACACA_site3255],8.79 ± 0.16
4,TTTTTTTTCTAAATTATATGAAAATATATGTTATGT [GTGCAC_negctrl_site85],7.79 ± 0.23
5,ACAATTTTAAAATGAACACACATGTTTTTCTTACTT [CACACA_site1014],7.75 ± 0.74
6,ATTTTCTATTTTATTTGTACGTAATTTAATTTTTTT [XGTACX_site3609],8.24 ± 0.49
7,TACATAAACATTTATACACACATTATAAATACATAT [CACACA_site4386],7.82 ± 0.35
8,ATAAAGATTAATAAAATAAAATTCCGCAAACATATA [CACACA_negctrl_site244],7.56 ± 0.54
9,TTTTGAAATTTTTGTGTTTTTCCTTTTTATTTTATA [CACACA_negctrl_site1740],7.36 ± 0.71
10,ATAAATCCATGTAACTGTACTTTTTTTTTTTTTTTT [XGTACX_site7373],8.86 ± 0.36
11,AAGTAATTTGTTGACACACACACACGCATACCTATA [CACACA_site7140],8.07 ± 0.65
12,TCCCAATTTCTATCCTGTACAGACATAAATATATAC [XGTACX_site5937],8.31 ± 0.49
13,ATAAAAATAAAATGGACACACATATATACATATTTG [CACACA_site3277],7.58 ± 0.4
14,AATTATAATAAATAACGTACAAAAAATAAATTATTT [XGTACX_site3627],7.76 ± 0.42
15,TTTTTTTTTGATATTTGTACTTAAGTAAATATTATA [XGTACX_site3843],7.67 ± 0.49
16,TATATATTCATGTGTACACACAAAAAAAAATAAAGT [CACACA_site2207],8.41 ± 0.65
17,ATAAGCGAATATATATCACACACAAAAAAATCAGAC [CACACA_site8657],8.51 ± 0.59
18,ATATTACACAGATATGCACACATTGTAGTTATTTAT [CACACA_site5454],8.91 ± 0.26
19,AAAAAGGAAATTTACACACACATATAACATACATTA [CACACA_site7534],7.68 ± 0.6

row,Sequence,gcPBM binding intensity (ln)
1,ACATATCGGGTGCATTAACACACATTTATTTGAATA [CACACA_site8736],11.8 ± 0.52
2,ATTATATCACTGTGTTGTACTTCTTATATAAAAATA [XGTACX_site2333],8.2 ± 0.36
3,TCCGTATAATTTTGCACACGAATATAAATTTGATAA [CACACA_site136],9.53 ± 0.2
4,TTTAATTCTTATATTTGTACAGATTCATAATTAAAT [XGTACX_site7465],7.58 ± 0.46
5,CGTTTATTAAACTTGACACACACACCCCCACATATA [CACACA_site8151],9.2 ± 0.13
6,AATCGATAACAATGTAGTACCAGAAAAATAAATATT [XGTACX_site8501],7.9 ± 0.76
7,TATATATATATATATGCATGCCATATGATATATATA [TGCATGCA_site109],9.43 ± 0.72
8,TCATATTTACAAAAAGGTATTAATAAATAAAATATT [CACACA_negctrl_site259],7.67 ± 0.58
9,AATAAGTGTTGATTCTTAAAATGACCATATAATAAT [TGCATGCA_negctrl_site221],7.62 ± 0.44
10,TATCTTTTATAAGTGACACACATAAATATTTAAATT [CACACA_site833],7.79 ± 0.35
11,ATATTAGGGTCATGAACACACAAAAAAAAAAAAAAA [CACACA_site937],8.07 ± 0.77
12,GCTATCATATCATGTTGTACACAACCTCAAAATGAA [XGTACX_site8757],8.07 ± 0.55
13,TTGATATAAAAAGAAAGTACTTTATAGATGTTTATT [XGTACX_site8144],7.7 ± 0.67
14,TATAAAAATATATATATATATATATATATATATATA [TGCATGCA_negctrl_site541],9.12 ± 0.38
15,AATAATAACAAATGAACACACATATATATGAGCAAA [CACACA_site2121],7.72 ± 0.35
16,TGTATAACCTGTGTTACACACATTAGAATTTATATA [CACACA_site6393],7.58 ± 0.43
17,TTCTCCATCAGATACTGTACATAATATATATAATAT [XGTACX_site8827],8.1 ± 0.33
18,TACATAAACTTTATAACACACACTTATATATATATA [CACACA_site1106],9.13 ± 0.31
19,TATATAAAGATATATACACACAAAAAAAAAAAAAAA [CACACA_site6778],7.95 ± 0.71

row,Sequence,gcPBM binding intensity (ln)
1,GCATCATTTATTTGCACACCTATTATATACTTTTTA [CACACA_site2098],10.2 ± 0.25
2,TTTTACTCTTAAAATAATAAAAAATATTCACATTTA [CACACA_negctrl_site1508],7.18 ± 0.54
3,AAAAAGAATATAAGTAGTACAGTGCATATAATAATT [XGTACX_site617],10.3 ± 0.37
4,TATATATACATATACGCATGTAAATTCAAAAGTAAA [TGCATGCA_site956],7.62 ± 0.37
5,AAGAGAAATGGGCACACACACACATATTATATATAT [CACACA_site1531],8.59 ± 0.54
6,TATAATTTTTTTAATACACACAAATATTTATATATA [CACACA_site3042],7.78 ± 0.34
7,AATTAATGTTTTGTCACACAGTATGATTATATATAT [CACACA_site6143],8.27 ± 0.9
8,TTAGTATATTTTTCCTGTACGTACTCAGATACAAAT [XGTACX_site7397],8.15 ± 0.42
9,TTAAATAATTTTTAATGTACATTAAATTTATTATTA [XGTACX_site261],7.55 ± 0.3
10,TACACATTATGTATCATACACACAAATAAATATATA [CACACA_site608],7.78 ± 0.29
11,TGAAGATAAAAATATGCACACATATATATATATATA [CACACA_site8027],9.48 ± 0.31
12,CATAAAAATGAACATACACACATATATTTATTTATA [CACACA_site7222],7.41 ± 0.43
13,ACATATTATAGGAATACACACAAAAACTTATCGGTA [CACACA_site7587],7.72 ± 0.59
14,ATTATATATATTGGAGTGCATATATAGTATTTTATA,9.88 ± 0.4
15,ATAGAAATCTATTGTGATTATTATTTTATTTTTAGT [XGTACX_negctrl_site605],7.5 ± 0.24
16,AATGTATTATGTAATAGTACGTATAATATCTTATTT [XGTACX_site3],7.64 ± 0.35
17,ATACATATCTATAATACACACATAAATGTAACATTT [CACACA_site7621],8.23 ± 0.52
18,TTCTACGTTTTAAAAAAAAAAAAAAAAAAAAAAAAA [XGTACX_negctrl_site6],8.13 ± 0.78

# Reference: the supplement of paper PMC11417369
